Experimental data: article PMC10080908
These are yes or no findings as the source states them, for the method shown. Binding seen in cells or lysates may run through a third protein. Sequences can lack the tags named with a protein.

Sequences of proteins named here, by UniProt entry; tags and fusion partners are left off.
UniProt Q969V5: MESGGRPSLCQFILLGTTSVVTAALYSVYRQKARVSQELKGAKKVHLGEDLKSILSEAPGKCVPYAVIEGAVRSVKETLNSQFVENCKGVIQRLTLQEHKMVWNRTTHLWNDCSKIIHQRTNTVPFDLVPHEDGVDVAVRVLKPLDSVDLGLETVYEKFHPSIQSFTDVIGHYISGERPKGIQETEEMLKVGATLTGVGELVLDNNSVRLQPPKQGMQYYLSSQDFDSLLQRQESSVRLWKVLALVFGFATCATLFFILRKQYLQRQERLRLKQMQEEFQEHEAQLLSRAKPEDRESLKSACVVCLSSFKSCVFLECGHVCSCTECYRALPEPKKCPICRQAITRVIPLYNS

Molecular target: T1, GST-UBXN7-UAS (human) (UniProt O94888)
T1 sequence: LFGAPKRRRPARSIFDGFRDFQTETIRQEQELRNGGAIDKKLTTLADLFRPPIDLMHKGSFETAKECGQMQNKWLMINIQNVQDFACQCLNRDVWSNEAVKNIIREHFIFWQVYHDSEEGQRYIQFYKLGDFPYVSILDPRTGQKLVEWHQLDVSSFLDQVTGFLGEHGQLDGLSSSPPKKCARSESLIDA
Test: pull-down; 5 µg GST-UBXN7 constructs on Glutathione Sepharose, 1 h with HEK-293 cellular extracts (untransfected or transfected) in IP150 buffer; western blot; only the target purified

- binding: no binding
Substance: Flag-MUL1 (from UniProt Q969V5 1-352)
